Measurements as given in PubChem BioAssay AID485281 (National Center for Advancing Translational Sciences (NCATS), 2010).
The whole screen tested about 350,000 compounds, of which about 260 (0.074%) were called active. Inconclusive results, whose numbers are uncertain, are shown with a selection of clear calls. Calls come from the whole dose curve; as a rule, active = well fitted inhibition curve with a large enough effect; inconclusive = small, poorly fitted or top-dose-only effect; inactive = no such curve, though single readings can be large or run the other way. Potencies beside an inconclusive call are fits to weak or partial responses and may not hold up.

Target: Ferritin light chain (Equus caballus) (UniProt P02791)
Test: qHTS Assay for Identification of Novel General Anesthetics; note: nearly all actives have a fitted effect of over 20% in size
Details: apoferritin/1-aminoanthracene competitive binding, fluorescence; series mostly up to 77.5 µM
Procedure, shortened: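 Steps: apoferritin (10 uM) was premixed with half-saturated 1-AMA in PBS, compounds were pin-transferred, plates stood 10 min at room temperature, fluorescence was read at 380/535 nm, and curves were fitted with a Hill equation.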
Potency is the fitted concentration of half-maximal effect; tags give direction and shape of the fitted curve.

UniProt P02791, sequence (P02791 whole entry, looked up): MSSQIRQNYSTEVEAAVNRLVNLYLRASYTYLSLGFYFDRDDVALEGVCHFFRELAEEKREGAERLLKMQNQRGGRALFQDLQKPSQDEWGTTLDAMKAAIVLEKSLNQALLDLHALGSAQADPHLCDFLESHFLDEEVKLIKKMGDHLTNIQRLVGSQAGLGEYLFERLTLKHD

Potency, inactive:
CCOC(=O)CN1C(c2ccc(O)cc2)Nc2ccc(Br)cc2C1c1ccccc1 (centres undefined)
C/C(=N\NC(=O)c1ccccc1)c1cccc(Br)c1
CCc1nc(-c2ccc(-c3ccc(OC)cc3)nc2OC)no1
CCC(C)NC(=O)CSc1c2c(nc3cc(Cl)ccc13)CCCC2 (centres undefined)
NCCCC[C@@H]1NC(=O)[C@H](CCC(=O)O)NC(=O)c2cc([N+](=O)[O-])cc(I)c2SC[C@@H](C(=O)NCC(N)=O)NC1=O
COc1cc(C(=O)Nc2ccc3nc4n(c(=O)c3c2)CCCC4)ccc1Br
Cc1c(NS(C)(=O)=O)cccc1-c1nc2cccnc2s1
O=C(CSc1nc2ncccc2o1)Nc1cccc(C(F)(F)F)c1
CC(=O)N1CC(C)Sc2ccc(S(=O)(=O)NCCc3ccccc3)cc21 (centres undefined)

Potency, inconclusive:
CCOC(=O)c1ccccc1NC(=O)Nc1cc2c(cc1N1CCCC1)n(C)c(=O)n2C 12.6 µM [inhibitor, single point]
NS(=O)(=O)c1cccc(NC(=O)COC(=O)COc2ccc3ccccc3c2)c1 15.8 µM [inhibitor, partial curve]
CC(=O)c1cccc(NC(=O)CC2SC(N3CCCCC3)=NC2=O)c1 (centres undefined) 22.4 µM [inhibitor, partial curve]
Nc1nnc(SCc2ccc(F)cc2)s1 22.4 µM [inhibitor, partial curve]
N#Cc1c(N)nc(SCC(=O)OCc2ccccc2)c(C#N)c1-c1ccco1 28.2 µM [inhibitor, partial curve]
Cc1ccc(C(=O)ON=C2CCN(c3ccc([N+](=O)[O-])cc3)CC2)cc1 14.1 µM [inhibitor, partial curve]
CC(C)OC(=O)Cn1cnc2ccc(Br)cc2c1=O 28.2 µM [inhibitor, partial curve]
O=C(NC(=S)NCCC1=CCCCC1)c1ccc(Br)o1 25.1 µM [inhibitor, partial curve]
O=S(=O)(c1cc(C(F)(F)F)ccc1Cl)N1CCCCCC1 28.2 µM [inhibitor, partial curve]
CC/C(=N\NC(=S)Nc1cccc(C)c1)c1ccccc1 31.6 µM [inhibitor, single point]
CCOC(=O)C1(Cc2cccc(OC)c2)CCN(C2CCOCC2)CC1 31.6 µM [inhibitor, partial curve]
CCc1ccc(/C=C2/C(=O)N(CC)C(=S)N2C)s1 56.2 µM [inhibitor, single point]
O=C(N=C1SCC(=O)N1c1ccccc1Cl)c1ccco1 39.8 µM [inhibitor, partial curve, poor fit]
CCOc1c(Cl)cnn(-c2ccc(C)cc2)c1=O 28.2 µM [inhibitor, partial curve]
COc1ccc(OC)c(CNC(=O)CN2N=C(c3ccc(Cl)cc3)CCC2=O)c1 39.8 µM [inhibitor, single point]
C=Cc1ccc(Cn2c(C(=O)O)c(CNC3CCCCC3)c3ccc(OC)cc32)cc1 10 µM [inhibitor, partial curve]
CC(C)C1N=C2c3ccccc3N=C(SCC(=O)c3ccc(O)c(O)c3)N2C1=O (centres undefined) 35.5 µM [inhibitor, partial curve]
CC[C@H](C)[C@H](NC(=O)[C@H](CO)NC(=O)[C@H](CC(C)C)NC(=O)[C@@H]1CCCN1C(=O)[C@@H]1CCCN1C(=O)[C@H](CC(=O)O)NC(=O)[C@@H](N)CC(=O)O)C(=O)N[C@@H](CC(=O)O)C(=O)N[C@@H](CC(C)C)C(=O)N[C@H](C(=O)N[C@@H](Cc1ccccc1)C(=O)N[C@@H](Cc1cnc[nH]1)C(=O)N[C@@H](CC(C)C)C(=O)N[C@@H](CC(C)C)C(=O)N[C@@H](CCCNC(=N)N)C(=O)N[C@H](C(=O)N[C@@H](CC(C)C)C(=O)N[C@@H](CC(C)C)C(=O)N[C@@H](CCC(=O)O)C(=O)N[C@@H](CC(C)C)C(=O)N[C@@H](C)C(=O)N[C@@H](CCCNC(=N)N)C(=O)N[C@H](C(=O)N[C@@H](CCC(N)=O)C(=O)N[C@@H](CO)C(=O)N[C@@H](CCC(N)=O)C(=O)N[C@@H](CCCNC(=N)N)C(=O)N[C@@H](CCC(=O)O)C(=O)N[C@@H](CCCNC(=N)N)C(=O)N[C@@H](C)C(=O)N[C@@H](CCC(=O)O)C(=O)N[C@@H](CCC(N)=O)C(=O)N[C@@H](CC(N)=O)C(=O)N[C@@H](CCCNC(=N)N)C(=O)N[C@H](C(=O)N[C@H](C(=O)N[C@@H](Cc1ccccc1)C(=O)N[C@@H](CC(=O)O)C(=O)N[C@@H](CO)C(=O)N[C@H](C(N)=O)C(C)C)[C@@H](C)CC)[C@@H](C)CC)[C@@H](C)O)[C@@H](C)O)[C@@H](C)O 12.6 µM [inhibitor, partial curve]
Cc1cccc(C2c3[nH]c4ccccc4c3CCN2C(=O)c2cc(CC(C)C)nc(C)n2)n1 (centres undefined) 35.5 µM [inhibitor, partial curve]
COC(=O)c1ccc(NC(=O)CCc2c(C)nc3c(c(C)nn3C(C)(C)C)c2C)cc1 1.26 µM [inhibitor, full curve, poor fit]
Cc1nn(-c2ccccc2)c(C)c1/C=N/N1CCN(Cc2ccccc2)CC1 28.2 µM [inhibitor, partial curve]
Cc1ccnc(SCC(=O)N2CCCc3ccccc32)n1 25.1 µM [inhibitor, partial curve]
CCC(CC)c1nnc(NC(=O)CCN2C(=O)c3ccccc3C2=O)s1 35.5 µM [inhibitor, partial curve]
Cc1ccccc1CN1CCC(C(=O)Nc2ccc(Oc3cccnc3)cc2)CC1 28.2 µM [inhibitor, partial curve]
CCCC(=O)Nc1nc(C)c(-c2csc(Nc3cc(OC)ccc3OC)n2)s1 28.2 µM [inhibitor, partial curve]
CCOc1ccc(N2C(=O)C(Cl)=C(N3CCOCC3)C2=O)cc1 39.8 µM [inhibitor, single point]
Cn1c(NCCN2CCOCC2)nc2c1c(=O)n(Cc1cccc(Cl)c1)c(=O)n2C 14.1 µM [inhibitor, partial curve]
C=CCOc1ccc(/C(O)=C2/C(=O)C(=O)N(CCCn3ccnc3)C2c2cccs2)cc1 (centres undefined) 35.5 µM [inhibitor, single point]
Fc1ccc2nc(Nc3ccccc3)sc2c1 5.62 µM [inhibitor, full curve, poor fit]
Clc1ccccc1CSc1nnc(C2CCNCC2)o1 7.08 µM [inhibitor, full curve]
COc1ccc(N2CCN(C(=O)CN3C(=O)COc4ccc(S(=O)(=O)N5CCC(C)CC5)cc43)CC2)cc1 22.4 µM [inhibitor, single point]
Cc1ccc(NC2=C(N3CCCCC3)C(=O)c3ccccc3C2=O)cc1 25.1 µM [inhibitor, partial curve]
CCOc1ccc(OCC)c(NC(=O)CCS(=O)(=O)c2ccc(Br)s2)c1 25.1 µM [inhibitor, partial curve]
CCc1ccc(-n2c(C)cc(/C=N/NC(=O)OC)c2C)cc1 50.1 µM [inhibitor, single point]
CC1(C)CC(=O)C(=Cc2cn(CCC#N)nc2-c2ccc(Cl)cc2)C(=O)C1 31.6 µM [inhibitor, single point]
O=[N+]([O-])/C=C/c1cn(Cc2ccc(F)cc2)c2ccccc12 25.1 µM [inhibitor, partial curve]
O=C(NCc1ccc(Cl)s1)c1cc(COc2c(F)cccc2F)on1 8.91 µM [inhibitor, partial curve]
CC1CCN(C(=O)CSc2nc(N)c3c4c(sc3n2)CN(C)CC4)CC1 35.5 µM [inhibitor, partial curve]
Cc1cc(C)cc(C(=O)NC(CC(N)=O)c2ccc(N3CCCCCC3)c([N+](=O)[O-])c2)c1 (centres undefined) 31.6 µM [inhibitor, partial curve]
CC(C)(C)c1ccc(/C=C2\SC(=O)N(CCNC(=O)c3cccc(S(=O)(=O)N4CCOCC4)c3)C2=O)cc1 5.62 µM [inhibitor, full curve, poor fit]
O=C(CN1C(=O)C2(SCC(=O)N2c2cccc(Cl)c2)c2ccccc21)NCc1ccccc1 (centres undefined) 3.55 µM [inhibitor, full curve]
CCCC[C@]12Cc3cc(OC)c(OC)cc3C(O1)c1c(cc(-c3ccccc3)oc1=O)O2 6.31 µM [inhibitor, single point]
Cc1ccc(Cn2ccc(NC(=O)CCSc3nc(-c4ccco4)cc(C(F)(F)F)n3)n2)cc1 11.2 µM [inhibitor, full curve]
CC(C)c1cc(C(=O)NNC(=S)NC2CCCCC2)cs1 28.2 µM [inhibitor, single point]
Cc1cccc(N(Cc2ccccc2)C(=O)c2ccc(S(C)(=O)=O)cc2)c1 31.6 µM [inhibitor, partial curve]
